This is an account of results in patent US20170121416A1.

This experiment has as its target Nectin-4 on cells (MCF-7, SKBR3) (UniProt Q96NY8). In words: cell-based or functional assay.

B1: anti-Nectin-4 antibody Ha22-2(2,4)6.1 (antibody, from another filing)
heavy: EVQLVESGGGLVQPGGSLRLSCAASGFTFSSYNMNWVRQAPGKGLEWVSYISSSSSTIYYADSVKGRFTISRDNAKNSLSLQMNSLRDEDTAVYYCARAYYYGMDVWGQGTTVTVSSASTKGPSVFPLAPSSKSTSGGTAALGCLVKDYFPEPVTVSWNSGALTSGVHTFPAVLQSSGLYSLSSVVTVPSSSLGTQTYICNVNHKPSNTKVDKRV[human IgG1 Fc omitted here]
light: DIQMTQSPSSVSASVGDRVTITCRASQGISGWLAWYQQKPGKAPKFLIYAASTLQSGVPSRFSGSGSGTDFTLTISSLQPEDFATYYCQQANSFPPTFGGGTKVEIKRTVAAPSVFIFPPSDEQLKSGTASVVCLLNNFYPREAKVQWKVDNALQSGNSQESVTEQDSKDSTYSLSSTLTLSKADYEKHKVYACEVTHQGLSSPVTKSFNRGEC
As for B1, the IC50 on MCF-7 (pM), in vitro killing with anti-human IgG Fab-saporin was 9.94 pM and the IC50 on SKBR3 (pM), in vitro killing with anti-human IgG Fab-saporin is 0.95 pM.
